{
  "source": "paper PMC10870044",
  "about": "“The Interplay Between HIF‐1α and EZH2 in Lung Cancer and Dual‐Targeted Drug Therapy” (Advanced Science, 2023)",
  "test_system": "EZH2",
  "conditions": "A549 and H460 cell lines; EZH2 protein expression not affected",
  "data": [
    {"smiles": "COc1cc2c(cc1O)CC[C@@H]1[C@@H]2CC[C@]2(C)[C@@H](O)CC[C@@H]12", "note": "[2‐ME2, 2‐methoxy estradiol]", "values": [
      {"measurement": "level of the EZH2 substrate H3K27me3", "value": "increase in the level of the EZH2 substrate H3K27me3"}
    ]}
  ]
}
